± gives the uncertainty stated by the source. Over roughly 9,900 compounds, “viability index relative to DMSO control” has its median near 1; the lowest 2% begin near 0.85. Some of the results follow.
test system: Plasmodium falciparum NF54 stage V gametocytes; assay: viability index relative to DMSO control (fraction); higher = less gametocyte killing; conditions: 2.5 µM, library set: Broad Institute DOS, incubation time: 72 h
In short: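 Gametocytes (P. falciparum NF54, stage V) were treated with compound at 2.5 µM for 72 hr at 37°C in low oxygen, in serum-free medium at 0.75% gametocytemia and 1.25% hematocrit. Counts of 20–70 µm2 red particles, taken from one field per well after MitoTracker Red CMXRos with saponin, were divided by the plate mean of solvent-only wells. This ratio is the viability index.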

SMILES | viability index
O=C(Nc1ccccc1)[C@H]1[C@H](CO)[C@H]2Cn3c(cccc3=O)[C@@H]1N2C(=O)c1ccc(F)cc1 | 1.006 ± 0.0021
C[C@@H](NC(=O)C[C@H]1C=C[C@H](NS(=O)(=O)c2cccc(F)c2)[C@@H](CO)O1)c1ccccc1 | 1.1 ± 0.11
C[C@@H]1CN([C@H](C)CO)C(=O)c2cc(NS(=O)(=O)c3ccc(F)cc3)ccc2O[C@H]1CN(C)C(=O)Nc1ccccc1 | 0.915 ± 0.12
N#C[C@@H]1[C@@H](c2ccccc2C2=CCCCC2)[C@H](CO)N1C(=O)CN1CCOCC1 | 1.1 ± 0.015
COC(=O)C[C@@H]1CC[C@H]2[C@@H](COC[C@@H](O)CN2S(=O)(=O)c2cn(C)cn2)O1 | 1.03 ± 0.032
Cc1noc(C)c1NC(=O)Nc1ccc2c(c1)C(=O)N(C)[C@@H]1CC[C@H](CC(=O)N[C@H]3CCN(Cc4ccccc4)C3)O[C@@H]1CO2 | 1.13 ± 0.03
CO[C@@H]1CC[C@@H]2CCOc3ccc(C#N)cc3C(=O)N(C)C[C@H](c3ccccc3)CC(=O)N(C)C[C@@H]1O2 | 1.067 ± 0.0091
Fc1cccc(-c2ccc([C@@H]3[C@@H]4CN(Cc5cncnc5)C[C@H]3N4)cc2)c1 | 1.04 ± 0.06
CN(C)CC(=O)N1[C@@H]2c3ccc(C4=CCCCC4)c(=O)n3C[C@@H]2[C@@H](CO)[C@@H]1C(=O)Nc1nccs1 | 0.994 ± 0.048
COc1ccc(CNC(=O)C[C@@H]2C=C[C@H](NC(=O)c3cccc(F)c3)[C@H](CO)O2)cc1 | 1.06 ± 0.032
C[C@H](CO)N1C[C@H](C)[C@H](CN(C)Cc2cccc(C(F)(F)F)c2)OCc2cnnn2CCCC1=O | 1.02 ± 0.019
Cc1noc(C)c1NC(=O)Nc1ccc2c(c1)C(=O)N(C)[C@@H]1CC[C@@H](CC(=O)N[C@H]3CCN(Cc4ccccc4)C3)O[C@@H]1CO2 | 1.16 ± 0.083
C[C@@H]1CCCCO[C@@H](CN(C)Cc2ccncc2)[C@@H](C)CN([C@H](C)CO)C(=O)c2cc(NC(=O)Cc3ccccc3)ccc2O1 | 1.11 ± 0.023
Cc1cccc(S(=O)(=O)N2C[C@@H]3[C@H](c4ccccc42)[C@H](CO)N3C(=O)c2ccccc2)c1 | 1.04 ± 0.042
C[C@H](CO)N1C[C@H](C)[C@H](CN(C)Cc2ccc(Cl)c(Cl)c2)Oc2ccc(NC(=O)C3CCCCC3)cc2CC1=O | 0.993 ± 0.072
COc1ccc(C#Cc2ccc([C@H]3[C@H]4CN(C(=O)NC(C)C)CC(=O)N4[C@H]3CO)cc2)cc1 | 1.06 ± 0.017
O=C(C1CCOCC1)N1CC(=O)N2[C@@H](CO)[C@H](c3ccc(C#CC4CCCCC4)cc3)[C@@H]2C1 | 1.09 ± 0.032
COCCNC(=O)C[C@@H]1CC[C@@H]2[C@H](COC[C@H](O)CN2C(=O)c2cc(Cl)cc(Cl)c2)O1 | 1.125 ± 0.01
O=C(C[C@@H]1C=C[C@H](NC(=O)Cc2ccccn2)[C@@H](CO)O1)NCCc1ccncc1 | 1.04 ± 0.022
